According to publication PMC6005816:
Results are given in words; binding and its absence hold for the method and conditions named. In cells and extracts the contact can be indirect. Some results given as binding are weak or reduced against the parent protein; the word gives no strength. Where a sequence is shown, tags or fusion partners need not be part of it.

The chains behind the UniProt entries cited, without tags or fusion partners. Where a name states a change or a piece, a line headed by the entry shows the natural chain unless it says otherwise.
UniProt O60826: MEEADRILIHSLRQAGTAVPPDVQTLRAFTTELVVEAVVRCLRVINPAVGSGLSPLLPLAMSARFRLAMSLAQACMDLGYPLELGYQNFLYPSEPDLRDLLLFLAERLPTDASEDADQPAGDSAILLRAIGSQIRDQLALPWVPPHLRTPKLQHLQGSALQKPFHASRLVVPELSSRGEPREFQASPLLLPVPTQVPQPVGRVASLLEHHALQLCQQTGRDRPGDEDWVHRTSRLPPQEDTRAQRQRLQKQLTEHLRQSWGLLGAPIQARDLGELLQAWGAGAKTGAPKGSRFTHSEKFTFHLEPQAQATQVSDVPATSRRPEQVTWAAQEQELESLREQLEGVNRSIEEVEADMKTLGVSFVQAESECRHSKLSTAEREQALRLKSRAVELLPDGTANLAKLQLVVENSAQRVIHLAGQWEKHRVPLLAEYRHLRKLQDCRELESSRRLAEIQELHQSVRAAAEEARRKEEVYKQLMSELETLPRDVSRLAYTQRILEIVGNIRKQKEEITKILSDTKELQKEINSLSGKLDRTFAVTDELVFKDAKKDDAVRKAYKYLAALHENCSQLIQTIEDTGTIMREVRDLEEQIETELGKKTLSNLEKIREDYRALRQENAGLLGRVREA
UniProt Q7Z3E2: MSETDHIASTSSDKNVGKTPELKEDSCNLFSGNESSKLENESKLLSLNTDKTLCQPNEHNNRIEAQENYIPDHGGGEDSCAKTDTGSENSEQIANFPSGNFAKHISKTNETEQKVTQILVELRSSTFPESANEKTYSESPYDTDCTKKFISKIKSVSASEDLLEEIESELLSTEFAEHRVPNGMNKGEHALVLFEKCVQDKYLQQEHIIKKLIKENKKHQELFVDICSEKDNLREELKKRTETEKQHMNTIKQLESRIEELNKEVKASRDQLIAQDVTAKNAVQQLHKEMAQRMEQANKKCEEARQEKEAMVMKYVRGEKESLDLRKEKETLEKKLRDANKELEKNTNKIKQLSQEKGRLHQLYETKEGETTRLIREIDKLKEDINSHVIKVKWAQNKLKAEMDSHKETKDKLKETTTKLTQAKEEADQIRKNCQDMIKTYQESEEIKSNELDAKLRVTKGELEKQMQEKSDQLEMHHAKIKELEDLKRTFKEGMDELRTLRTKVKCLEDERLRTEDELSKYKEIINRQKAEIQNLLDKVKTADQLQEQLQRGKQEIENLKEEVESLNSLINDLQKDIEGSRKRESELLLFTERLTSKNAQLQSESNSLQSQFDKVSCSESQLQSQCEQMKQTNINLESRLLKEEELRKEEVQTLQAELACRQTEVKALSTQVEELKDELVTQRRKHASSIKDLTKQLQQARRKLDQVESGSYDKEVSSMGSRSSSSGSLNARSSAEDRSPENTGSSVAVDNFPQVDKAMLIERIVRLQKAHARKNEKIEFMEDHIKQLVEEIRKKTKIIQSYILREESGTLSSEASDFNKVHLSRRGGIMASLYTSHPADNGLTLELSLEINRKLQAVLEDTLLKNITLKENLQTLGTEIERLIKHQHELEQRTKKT

Experiments:
VPS33B/GST-VIPAR complex = biological target: T1, VPS33B/GST-VIPAR complex (UniProt Q9H267); assay: pull-down; GST pull-down with 40–100 pmol purified VPS33B/GST-VIPAR complex as bait; myc-tagged prey made by in vitro transcription/translation in wheat germ lysate; anti-myc immunoblot; only the target purified
T1 sequence 1: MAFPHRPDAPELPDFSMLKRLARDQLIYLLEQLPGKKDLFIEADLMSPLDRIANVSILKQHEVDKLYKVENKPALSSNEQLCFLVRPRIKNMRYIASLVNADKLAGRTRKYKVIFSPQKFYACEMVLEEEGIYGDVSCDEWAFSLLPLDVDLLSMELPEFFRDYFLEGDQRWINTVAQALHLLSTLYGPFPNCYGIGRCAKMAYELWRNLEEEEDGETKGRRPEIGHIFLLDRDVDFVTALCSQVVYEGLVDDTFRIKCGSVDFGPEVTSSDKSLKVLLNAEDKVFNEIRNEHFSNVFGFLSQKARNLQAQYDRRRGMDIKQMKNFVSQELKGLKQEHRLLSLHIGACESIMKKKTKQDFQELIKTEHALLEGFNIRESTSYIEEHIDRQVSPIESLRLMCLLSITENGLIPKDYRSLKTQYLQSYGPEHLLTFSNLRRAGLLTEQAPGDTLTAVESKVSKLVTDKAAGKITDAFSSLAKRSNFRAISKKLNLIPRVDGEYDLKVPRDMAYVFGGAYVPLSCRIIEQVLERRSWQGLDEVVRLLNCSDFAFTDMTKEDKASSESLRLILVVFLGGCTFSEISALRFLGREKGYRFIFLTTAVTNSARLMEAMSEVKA
T1 sequence 2: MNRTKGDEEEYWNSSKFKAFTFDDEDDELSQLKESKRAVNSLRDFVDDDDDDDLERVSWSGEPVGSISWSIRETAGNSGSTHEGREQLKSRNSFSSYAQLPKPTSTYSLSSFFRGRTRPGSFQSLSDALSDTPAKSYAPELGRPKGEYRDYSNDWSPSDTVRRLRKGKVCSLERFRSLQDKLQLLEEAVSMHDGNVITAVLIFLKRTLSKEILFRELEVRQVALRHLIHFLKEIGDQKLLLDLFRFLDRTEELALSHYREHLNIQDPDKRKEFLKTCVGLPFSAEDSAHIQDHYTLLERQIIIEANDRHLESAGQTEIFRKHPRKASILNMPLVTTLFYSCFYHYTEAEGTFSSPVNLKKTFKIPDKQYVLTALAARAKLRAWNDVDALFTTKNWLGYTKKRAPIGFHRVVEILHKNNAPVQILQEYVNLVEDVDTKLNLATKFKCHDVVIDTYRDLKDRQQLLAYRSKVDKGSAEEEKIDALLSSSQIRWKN

VPS33B-GFP (human) = biological target: T2, VPS33B-GFP (human) (UniProt Q9H267); assay: co-IP; GFP-Trap on lysates of HEK293T cells co-transfected with VPS33B-GFP, FLAG-VIPAR and one myc-tagged candidate; buffer contained EDTA; immunoblotting
T2 sequence: T1 sequence 1

For “myc-CCDC22 T30A, in vitro translated (from UniProt O60826 1-627)”, the binding (VPS33B/GST-VIPAR complex) was “binds”.

In the case of “myc-CCDC22 R128Q, in vitro translated (from UniProt O60826 1-627)”, the binding (VPS33B/GST-VIPAR complex) is reported as “binds”.

“myc-CCDC22 R321W, in vitro translated (from UniProt O60826 1-627)” was tested, and the binding (VPS33B/GST-VIPAR complex) was “binds”.

For “myc-CCDC22 T17A, in vitro translated (from UniProt O60826 1-627)”, the binding (VPS33B/GST-VIPAR complex) was “binds”.

With “myc-CCDC22, in vitro translated (from UniProt O60826 1-627)” the binding (VPS33B/GST-VIPAR complex) was “binds”.

In the case of myc-CCDC186 (from UniProt Q7Z3E2 1-898), the binding (VPS33B-GFP (human)) is reported as “no binding”.

With “myc-CCDC22 E239K, in vitro translated (from UniProt O60826 1-627)” the binding (VPS33B/GST-VIPAR complex) was “binds”.

B1: FLAG-VIPAR (protein, UniProt Q9H9C1 1-493)
chain: T1 sequence 2
For B1, the binding (VPS33B-GFP (human)) was “binds”.

B2: myc-VPS51, in vitro translated (protein, UniProt Q9UID3 1-782)
chain: MAAAAAAGPSPGSGPGDSPEGPEGEAPERRRKAHGMLKLYYGLSEGEAAGRPAGPDPLDPTDLNGAHFDPEVYLDKLRRECPLAQLMDSETDMVRQIRALDSDMQTLVYENYNKFISATDTIRKMKNDFRKMEDEMDRLATNMAVITDFSARISATLQDRHERITKLAGVHALLRKLQFLFELPSRLTKCVELGAYGQAVRYQGRAQAVLQQYQHLPSFRAIQDDCQVITARLAQQLRQRFREGGSGAPEQAECVELLLALGEPAEELCEEFLAHARGRLEKELRNLEAELGPSPPAPDVLEFTDHGGSGFVGGLCQVAAAYQELFAAQGPAGAEKLAAFARQLGSRYFALVERRLAQEQGGGDNSLLVRALDRFHRRLRAPGALLAAAGLADAATEIVERVARERLGHHLQGLRAAFLGCLTDVRQALAAPRVAGKEGPGLAELLANVASSILSHIKASLAAVHLFTAKEVSFSNKPYFRGEFCSQGVREGLIVGFVHSMCQTAQSFCDSPGEKGGATPPALLLLLSRLCLDYETATISYILTLTDEQFLVQDQFPVTPVSTLCAEARETARRLLTHYVKVQGLVISQMLRKSVETRDWLSTLEPRNVRAVMKRVVEDTTAIDVQVGLLYEEGVRKAQSSDSSKRTFSVYSSSRQQGRYAPSYTPSAPMDTNLLSNIQKLFSERIDVFSPVEFNKVSVLTGIIKISLKTLLECVRLRTFGRFGLQQVQVDCHFLQLYLWRFVADEELVHLLLDEVVASAALRCPDPVPMEPSVVEVICERG
For B2, the binding (VPS33B/GST-VIPAR complex) was “no binding”.

B3: myc-VPS54, in vitro translated (protein, UniProt Q9P1Q0 1-977)
chain: MASSHSSSPVPQGSSSDVFFKIEVDPSKHIRPVPSLPDVCPKEPTGDSHSLYVAPSLVTDQHRWTVYHSKVNLPAALNDPRLAKRESDFFTKTWGLDFVDTEVIPSFYLPQISKEHFTVYQQEISQREKIHERCKNICPPKDTFERTLLHTHDKSRTDLEQVPKIFMKPDFALDDSLTFNSVLPWSHFNTAGGKGNRDAASSKLLQEKLSHYLDIVEVNIAHQISLRSEAFFHAMTSQHELQDYLRKTSQAVKMLRDKIAQIDKVMCEGSLHILRLALTRNNCVKVYNKLKLMATVHQTQPTVQVLLSTSEFVGALDLIATTQEVLQQELQGIHSFRHLGSQLCELEKLIDKMMIAEFSTYSHSDLNRPLEDDCQVLEEERLISLVFGLLKQRKLNFLEIYGEKMVITAKNIIKQCVINKVSQTEEIDTDVVVKLADQMRMLNFPQWFDLLKDIFSKFTIFLQRVKATLNIIHSVVLSVLDKNQRTRELEEISQQKNAAKDNSLDTEVAYLIHEGMFISDAFGEGELTPIAVDTTSQRNASPNSEPCSSDSVSEPECTTDSSSSKEHTSSSAIPGGVDIMVSEDMKLTDSELGKLANNIQELLYSASDICHDRAVKFLMSRAKDGFLEKLNSMEFITLSRLMETFILDTEQICGRKSTSLLGALQSQAIKFVNRFHEERKTKLSLLLDNERWKQADVPAEFQDLVDSLSDGKIALPEKKSGATEERKPAEVLIVEGQQYAVVGTVLLLIRIILEYCQCVDNIPSVTTDMLTRLSDLLKYFNSRSCQLVLGAGALQVVGLKTITTKNLALSSRCLQLIVHYIPVIRAHFEARLPPKQYSMLRHFDHITKDYHDHIAEISAKLVAIMDSLFDKLLSKYEVKAPVPSACFRNICKQMTKMHEAIFDLLPEEQTQMLFLRINASYKLHLKKQLSHLNVINDGGPQNGLVTADVAFYTGNLQALKGLKDLDLNMAEIWEQKR
With B3 the binding (VPS33B/GST-VIPAR complex) was “no binding”.

B4: myc-CCDC138 (protein, UniProt Q96M89 1-665)
chain: MEPRVVKPPGQDLVVESLKSRYGLGGSCPDEYDFSNFYQSKYKRRTLTSPGDLDIYSGDKVGSSLKYSDESKHCRTPLGSLFKHVNVNCLDDELDSFHDLKKQETEEELIENDYRVSTSKITKQSFKEIEKVALPTNTTSSRPRTECCSDAGDSPLKPVSCPKSKASDKRSLLPHQISQIYDELFQIHLKLQCETAAQQKFAEELQKRERFLLEREQLLFRHENALSKIKGVEEEVLTRFQIIKEQHDAEVEHLTEVLKEKNKETKRLRSSFDALKELNDTLKKQLNEASEENRKIDIQAKRVQARLDNLQRKYEFMTIQRLKGSSHAVHEMKSLKQEKAPVSKTYKVPLNGQVYELLTVFMDWISDHHLSKVKHEESGMDGKKPQLKFASQRNDIQEKCVKLLPLMTEQLQWMPFVNIKLHEPFVKFIYWSLRQLDAGAQHSTMTSTLRRLGEDIFKGVVTKGIQDNSPQHSVENKPKTAAFFKSSNLPLRFLSTLIVLKTVTQADYLAQAFDSLCLDLKTEEGKTLFLEYQAVPVILSHLRISSKGLLSNVIDSLLQMTVESKSLQPFLEACSNSLFFRTCSVLLRAPKLDLQILEKLSIILQKLSKIKSNKKLFELFTIHLMLQEIQRTTNPEHAFLCINLNSTLFNLGLTKCNSLVSSASP
For B4, the binding (VPS33B-GFP (human)) was “no binding”.

B5: myc-GRIPAP1 (protein, UniProt Q4V328 1-841)
chain: MAQALSEEEFQRMQAQLLELRTNNYQLSDELRKNGVELTSLRQKVAYLDKEFSKAQKALSKSKKAQEVEVLLSENEMLQAKLHSQEEDFRLQNSTLMAEFSKLCSQMEQLEQENQQLKEGAAGAGVAQAGPLVDGELLRLQAENTALQKNVAALQERYGKEAGKFSAVSEGQGDPPGGLAPTVLAPMPLAEVELKWEMEKEEKRLLWEQLQGLESSKQAETSRLQEELAKLSEKLKKKQESFCRLQTEKETLFNDSRNKIEELQQRKEADHKAQLARTQKLQQELEAANQSLAELRDQRQGERLEHAAALRALQDQVSIQSADAQEQVEGLLAENNALRTSLAALEQIQTAKTQELNMLREQTTGLAAELQQQQAEYEDLMGQKDDLNSQLQESLRANSRLLEQLQEIGQEKEQLTQELQEARKSAEKRKAMLDELAMETLQEKSQHKEELGAVRLRHEKEVLGVRARYERELRELHEDKKRQEEELRGQIREEKARTRELETLQQTVEELQAQVHSMDGAKGWFERRLKEAEESLQQQQQEQEEALKQCREQHAAELKGKEEELQDVRDQLEQAQEERDCHLKTISSLKQEVKDTVDGQRILEKKGSAALKDLKRQLHLERKRADKLQERLQDILTNSKSRSGLEELVLSEMNSPSRTQTGDSSSISSFSYREILREKESSAVPARSLSSSPQAQPPRPAELSDEEVAELFQRLAETQQEKWMLEEKVKHLEVSSASMAEDLCRKSAIIETYVMDSRIDVSVAAGHTDRSGLGSVLRDLVKPGDENLREMNKKLQNMLEEQLTKNMHLHKDMEVLSQEIVRLSKECVGPPDPDLEPGETS
B5 was tested, and the binding (VPS33B-GFP (human)) was “no binding”.
